Reference: PMC6410080 (Viruses, 2019)

Tested on: DID-labelled SFV hemifusion/fusion
Format: cell-based, Semliki Forest virus
Conditions: HeLa Kyoto, 10 μM, 40 min at 37 °C, normalised to DMSO

SMILES: O=[N+]([O-])c1ccc2c(c1)S(=O)(=O)C=C2 [Stattic]
- Inhibition of DID-SFV de-quenching (hemifusion/fusion): More than 50%
